Test results: the supplement of paper PMC8728848
The list shows a part of the results.

Key:
Assay in all cases: glycan array binding signal (z-score within array); higher = stronger binding
Conditions in all cases: glycan notation: IUPAC condensed, linker removed
[1] = biological target: Neu5Ac(a2-3)Gal6S(b1-4)[Fuc(a1-3)]GlcNAc
How it was run: (§1)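 Glycan array data were curated from 3228 arrays in the Consortium for Functional Glycomics database and kept only where the protein sequence was available. Glycan names were converted to IUPAC-condensed notation, and columns mapping to the same glycan were averaged. The binding signal is a within-array Z-score, averaged across arrays of the same protein sequence at different concentrations or buffers and across linkers. Negative Z-scores can be read as non-binding.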

Neu5Ac(a2-3)GalNAc = biological target: Neu5Ac(a2-3)GalNAc
How it was run: as §1

[2] = biological target: Neu5Ac(a2-3)GalNAc(b1-4)GlcNAc
How it was run: as §1

[3] = biological target: Neu5Ac(a2-3)[GalNAc(b1-4)]Gal(b1-4)Glc
How it was run: as §1

[4] = biological target: Neu5Ac(a2-3)[GalNAc(b1-4)]Gal(b1-4)GlcNAc
How it was run: as §1

[5] = biological target: Neu5Ac(a2-3)[GalNAc(b1-4)]Gal(b1-4)GlcNAc(b1-3)GalNAc
How it was run: as §1

[6] = biological target: Neu5Ac(a2-3)[Neu5Ac(a2-6)]GalNAc
How it was run: as §1

Neu5Ac(a2-6)Gal = biological target: Neu5Ac(a2-6)Gal
How it was run: as §1

[7] = biological target: Neu5Ac(a2-6)Gal(b1-3)GlcNAc(b1-3)[Gal(b1-4)GlcNAc(b1-6)]Gal(b1-4)Glc
How it was run: as §1

Neu5Ac(a2-6)Gal(b1-4)Glc = biological target: Neu5Ac(a2-6)Gal(b1-4)Glc
How it was run: as §1

[8] = biological target: Neu5Ac(a2-6)Gal(b1-4)GlcNAc
How it was run: as §1

[9] = biological target: Neu5Ac(a2-6)Gal(b1-4)GlcNAc(b1-2)Man
How it was run: as §1

[10] = biological target: Neu5Ac(a2-6)Gal(b1-4)GlcNAc(b1-2)Man(a1-3)Man(b1-4)GlcNAc(b1-4)GlcNAc
How it was run: as §1

[11] = biological target: Neu5Ac(a2-6)Gal(b1-4)GlcNAc(b1-2)Man(a1-3)[Gal(b1-4)GlcNAc(b1-2)Man(a1-6)]Man(b1-4)GlcNAc(b1-4)GlcNAc
How it was run: as §1

[12] = biological target: Neu5Ac(a2-6)Gal(b1-4)GlcNAc(b1-2)Man(a1-3)[GlcNAc(b1-2)Man(a1-6)]Man(b1-4)GlcNAc(b1-4)GlcNAc
How it was run: as §1

[13] = biological target: Neu5Ac(a2-6)Gal(b1-4)GlcNAc(b1-2)Man(a1-3)[GlcNAc(b1-4)][Neu5Ac(a2-6)Gal(b1-4)GlcNAc(b1-2)Man(a1-6)]Man(b1-4)GlcNAc(b1-4)GlcNAc
How it was run: as §1

[14] = biological target: Neu5Ac(a2-6)Gal(b1-4)GlcNAc(b1-2)Man(a1-3)[Man(a1-6)]Man(b1-4)GlcNAc(b1-4)GlcNAc
How it was run: as §1

[15] = biological target: Neu5Ac(a2-6)Gal(b1-4)GlcNAc(b1-2)Man(a1-3)[Neu5Ac(a2-3)Gal(b1-4)GlcNAc(b1-2)Man(a1-6)]Man(b1-4)GlcNAc(b1-4)GlcNAc
How it was run: as §1

[16] = biological target: Neu5Ac(a2-6)Gal(b1-4)GlcNAc(b1-2)Man(a1-3)[Neu5Ac(a2-6)Gal(b1-4)GlcNAc(b1-2)Man(a1-6)]Man(b1-4)GlcNAc(b1-4)GlcNAc
How it was run: as §1

[17] = biological target: Neu5Ac(a2-6)Gal(b1-4)GlcNAc(b1-2)Man(a1-3)[Neu5Ac(a2-6)Gal(b1-4)GlcNAc(b1-2)Man(a1-6)]Man(b1-4)GlcNAc(b1-4)[Fuc(a1-6)]GlcNAc
How it was run: as §1

[18] = biological target: Neu5Ac(a2-6)Gal(b1-4)GlcNAc(b1-2)Man(a1-6)Man(b1-4)GlcNAc(b1-4)GlcNAc
How it was run: as §1

[19] = biological target: Neu5Ac(a2-6)Gal(b1-4)GlcNAc(b1-2)Man(a1-6)[Gal(b1-4)GlcNAc(b1-2)Man(a1-3)]Man(b1-4)GlcNAc(b1-4)GlcNAc
How it was run: as §1

B1: HA-11100 (Pseudomonas aeruginosa), Q02G51_PSEAB (protein)
chain: QFNPNEIKISQQGKTTLIDQSTQRAIINWKGFDVSADEAVRFNQPGVTSSTLNRVTAGQESVIAGRISAPGQVIIYNSNGVVFSGSAKVDVGSLITTTANISDEHFRQGKLIFDQPGNPDARIVNDGSISVAEKGLAAFVAPSVANNGVINARLGTVAMAAGNAATIDLYG
**Q.** How did the “glycan array binding signal (z-score)” value [1] turn out when B1 was run?
**A.** Its value is -0.133.

**Q.** And the “glycan array binding signal (z-score)” value (Neu5Ac(a2-3)GalNAc)?
**A.** Its value is -0.038.

**Q.** What about the “glycan array binding signal (z-score)” value [2] of the same binder?
**A.** Its value is -0.519.

**Q.** And the “glycan array binding signal (z-score)” value [3]?
**A.** Its value is 0.33.

**Q.** And the “glycan array binding signal (z-score)” value [4]?
**A.** Its value is -0.189.

**Q.** What about the “glycan array binding signal (z-score)” value [5] of the same binder?
**A.** The value was -0.169.

**Q.** What about the “glycan array binding signal (z-score)” value [6] of the same binder?
**A.** The value was -0.339.

**Q.** And the “glycan array binding signal (z-score)” value (Neu5Ac(a2-6)Gal)?
**A.** Its value is -0.292.

**Q.** And the “glycan array binding signal (z-score)” value [7]?
**A.** The value was 0.023.

**Q.** What about the “glycan array binding signal (z-score)” value (Neu5Ac(a2-6)Gal(b1-4)Glc) of the same binder?
**A.** Its value is -0.194.

**Q.** And the “glycan array binding signal (z-score)” value [8]?
**A.** Its value is -0.363.

**Q.** What about the “glycan array binding signal (z-score)” value [9] of the same binder?
**A.** The value was 0.137.

**Q.** And the “glycan array binding signal (z-score)” value [10]?
**A.** Its value is -0.454.

**Q.** What about the “glycan array binding signal (z-score)” value [11] of the same binder?
**A.** The value was -0.449.

**Q.** What about the “glycan array binding signal (z-score)” value [12] of the same binder?
**A.** The value was -0.487.

**Q.** And the “glycan array binding signal (z-score)” value [13]?
**A.** Its value is 0.281.

**Q.** What about the “glycan array binding signal (z-score)” value [14] of the same binder?
**A.** Its value is -0.097.

**Q.** And the “glycan array binding signal (z-score)” value [15]?
**A.** Its value is -0.355.

**Q.** And the “glycan array binding signal (z-score)” value [16]?
**A.** The value was -0.199.

**Q.** And the “glycan array binding signal (z-score)” value [17]?
**A.** The value was 0.278.

**Q.** What about the “glycan array binding signal (z-score)” value [18] of the same binder?
**A.** Its value is 0.04.

**Q.** What about the “glycan array binding signal (z-score)” value [19] of the same binder?
**A.** The value was -0.565.
